Test results published in the supplement of paper PMC3334620.
The full ranking holds about 33,000 sequences; the median of “E-score (-0.5 to 0.5)” is about -0.054, and the highest 2% start at about 0.35. This is one part of the list.

target: T1, Stb5 (UniProt P38699); experiment: PBM E-score (8-mer binding enrichment) (E-score (-0.5 to 0.5)); higher = stronger / more preferred TF binding; most listed sequences are background and not binding sites; conditions: protein concentration: 200 nM; construct: GST-full length
T1 sequence: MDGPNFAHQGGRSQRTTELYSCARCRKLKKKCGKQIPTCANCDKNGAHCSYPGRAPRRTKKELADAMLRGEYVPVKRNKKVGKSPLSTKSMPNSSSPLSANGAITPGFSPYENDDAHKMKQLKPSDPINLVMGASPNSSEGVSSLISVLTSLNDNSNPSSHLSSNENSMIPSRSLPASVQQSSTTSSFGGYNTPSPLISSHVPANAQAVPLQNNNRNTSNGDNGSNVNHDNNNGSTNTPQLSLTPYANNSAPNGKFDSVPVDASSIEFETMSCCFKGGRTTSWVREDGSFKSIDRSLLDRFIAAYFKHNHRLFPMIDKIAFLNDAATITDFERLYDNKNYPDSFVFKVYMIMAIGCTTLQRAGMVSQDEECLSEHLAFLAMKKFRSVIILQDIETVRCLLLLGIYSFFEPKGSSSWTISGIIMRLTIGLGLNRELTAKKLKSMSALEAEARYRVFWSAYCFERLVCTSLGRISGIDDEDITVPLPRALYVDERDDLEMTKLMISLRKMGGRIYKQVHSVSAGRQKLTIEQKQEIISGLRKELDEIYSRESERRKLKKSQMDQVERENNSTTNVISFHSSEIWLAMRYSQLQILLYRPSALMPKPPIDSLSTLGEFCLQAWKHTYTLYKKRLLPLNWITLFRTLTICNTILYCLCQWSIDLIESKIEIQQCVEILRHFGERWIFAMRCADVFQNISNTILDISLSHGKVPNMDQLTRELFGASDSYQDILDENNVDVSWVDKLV
How it was run: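 Full-length yeast transcription factors or their DNA-binding domains, GST-tagged and expressed with PURExpress, were applied at about 100-200 nM to universal all-10-mer Agilent arrays. These arrays had been made double-stranded by primer extension on fresh or once-stripped slides. Detection used fluorescent anti-GST, normalisation used masliner, and E-scores for ungapped eight-base words pooled with reverse complements came from the Universal PBM Analysis Suite.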

In order of rising “PBM E-score” value:
1. ACAGGCTG  -0.336
2. CAGGCGAG  -0.302
3. TAGGTGGA  -0.298
4. GCAACGTA  -0.284
5. ATCCTGGC  -0.277
6. AACACTTG  -0.273
7. AGAAGCTC  -0.269
8. AACTAGTT  -0.266
9. AGCAGACT  -0.263
10. ATATACCA  -0.252
11. TCTACGAA  -0.25
12. CTAGCCTC  -0.249
13. AGAGAGGG  -0.247
14. ACGTAAGG  -0.247
15. GCCCAGCC  -0.245
16. TCGAGGAA  -0.24
17. AACTCTCG  -0.23
18. ACTGATCC  -0.228
19. AGCACTAT  -0.215
20. ACCAGTGA  -0.215
21. CCAAGATC  -0.211
22. AACGTGCT  -0.21
23. TAATGAAA  -0.208
24. GGCTACAA  -0.205
25. AGACTTAT  -0.204
26. ACCCAAAA  -0.204
27. AGCACGAC  -0.2
28. ACGATCAC  -0.199
29. AATGCGAG  -0.198
30. AGCATACT  -0.195
31. TACTTACA  -0.19
32. CACACTAG  -0.189
33. AGATCTAG  -0.188
34. CCATACTA  -0.188
35. ATGCCTCG  -0.187
36. CCAACTGG  -0.18
37. ATGCTGGC  -0.18
38. CACGATGG  -0.179
39. ATTGGTTA  -0.179
40. AAGTACCT  -0.178
41. GCGTATCA  -0.17
42. CATGTGAC  -0.169
43. AGGCCTGA  -0.167
44. AGGGCGAT  -0.165
45. AACCTTAG  -0.164
46. ATCGAATG  -0.156
47. AGGGGGTG  -0.153
48. CTCGTGGC  -0.152
49. GTTCAAGA  -0.151
50. GTTCTCCA  -0.149
51. AACTGCTT  -0.149
52. CATAAGAG  -0.148
53. CACACTTA  -0.143
54. CGTGCGAA  -0.139
55. CAAGGCAA  -0.139
56. ATGGTGGG  -0.133
57. CTGTGCTC  -0.132
58. AAATGTCT  -0.13
59. GCCTACCC  -0.13
60. ATGGAGCA  -0.13
61. AACAATCT  -0.129
62. GTCAATCA  -0.128
63. ACGACGTG  -0.128
64. AGTGGCTG  -0.126
65. ACGTTTCC  -0.124
66. AACATAGA  -0.123
67. AAACAAAT  -0.122
68. GCCTCGAC  -0.122
69. AACTCCTC  -0.117
70. TGACAGCA  -0.113
71. CCACTGTA  -0.112
72. AGAAGTGG  -0.112
73. AGTCTATC  -0.111
74. CTTAACCA  -0.11
75. GAACTCAA  -0.109
76. GCTGAGTA  -0.108
77. GAAAGGGA  -0.107
78. CCTAAGTA  -0.104
79. CAATTACG  -0.1
80. ACTGAGCG  -0.0997
81. AATCACAG  -0.0987
82. ATTTGATA  -0.0969
83. AATGAGCC  -0.0951
84. ATGAAGGC  -0.094
85. GCTTATCA  -0.0923
86. ACCATTAT  -0.0908
87. TATATACA  -0.0903
88. GGTTGCAA  -0.0888
89. AGCAGGGG  -0.0872
90. TAAACGAA  -0.0854
91. CCCTAGAA  -0.0853
92. ATTAACTA  -0.0846
93. GGCACACC  -0.0809
94. AATTCAGC  -0.0791
95. GAGGAGTA  -0.0784
96. TCGTGAAA  -0.0764
97. CGACTTGA  -0.0752
98. CAGACTGA  -0.0748
99. GCCCTACC  -0.0725
100. ATTTTGAC  -0.072
101. GCACTAAC  -0.0653
102. ATAGGTCA  -0.0628
103. GTATTTAA  -0.0551
104. ACAACATC  -0.0505
105. CTCGTACC  -0.0494
106. AGTATGCG  -0.0446
107. CGCCTGAA  -0.0429
108. ACGAATGA  -0.0416
109. ACTGCACG  -0.037
110. AACTTCTT  -0.0358
111. CTAAAAGA  -0.0349
112. AAATATAC  -0.0341
113. CGCAAGCA  -0.0326
114. GCCTACAA  -0.0321
115. GACAAGGC  -0.03
116. GAATTGAA  -0.0276
117. GGTACGTA  -0.0252
118. CCATATAG  -0.0251
119. CCCTTAAG  -0.0232
120. ACAATGAC  -0.0214
121. GAATTTAC  -0.0188
122. AGAATGTA  -0.0152
123. TATTAACA  -0.0141
124. ACGATGAC  -0.0132
125. ACACGTAT  -0.0124
126. CGCCCTCA  -0.00815
127. TCTGCAGA  0.00207
128. AGATGACC  0.00414
129. CACAGTCC  0.00418
130. AAAGCTGC  0.00436
131. GGACTAGA  0.00576
132. AAGTCCAC  0.0098
133. GCACCTAA  0.0125
134. GGATCATA  0.0145
135. AGGACATC  0.0155
136. ATCTTCCC  0.0175
137. AGCGGTTG  0.0188
138. CGCTCCAA  0.0195
139. GGCGTGAA  0.025
140. CGATCCAA  0.0254
141. ACATGTAT  0.0254
142. CTATGTAA  0.0267
143. AATAACTG  0.0268
144. CGACCAAA  0.0296
145. TGACATAA  0.0303
146. CGCGTCGC  0.0312
147. AACCACCC  0.0323
148. TATATTGA  0.0442
149. ACGCGAAT  0.0453
150. CGTATGGA  0.0515
151. CGCTCGTC  0.0535
152. CGCGTCCG  0.0546
153. CACACCCC  0.0558
154. GCACCCGA  0.0572
155. TGTGCTAA  0.0576
156. ATTAATGG  0.061
157. CCATATCC  0.0628
158. AGGCGTCG  0.0668
159. TAAATACA  0.0708
160. CGGCAGAC  0.0711
161. GGTGAACC  0.0716
162. GCCTTCGC  0.072
163. ACATACGT  0.0721
164. AAGGTAAA  0.0733
165. CATGCAGC  0.0741
166. GGCTAACA  0.075
167. CGAAATTC  0.0811
168. CTGAAACC  0.0837
169. AATTTTGT  0.0844
170. AGCGGCTG  0.0872
171. CGCGCAGA  0.0979
172. GTTCTAAA  0.0991
173. AAATAATA  0.101
174. CCCGAACA  0.107
175. AATAACGC  0.109
176. GTGACAAA  0.113
177. GCAAAACC  0.116
178. AATAGCCC  0.119
179. TACGCGGA  0.121
180. GGAGTGCC  0.127
181. GCTCGAGC  0.134
182. AGTTAGAA  0.136
183. GATGATTA  0.142
184. AACCGATG  0.143
185. CAGTTATG  0.143
186. AAAACGGT  0.144
187. CGTCCGCA  0.145
188. ATCGGAAA  0.149
189. CTATTTCC  0.16
190. ATTTTCCC  0.178
191. GGACCCGA  0.185
192. ACGGGAAA  0.19
193. ACCAACGG  0.193
194. GACTATAA  0.195
195. CAGCGGCA  0.198
196. CCCCGAGA  0.2
197. CGACTAAG  0.202
198. ATGGTGCC  0.222
199. ACCCGGCG  0.232
200. ATCCGATC  0.235
201. ACCGCAGG  0.241
202. AACGGTGG  0.245
203. CGTCCCGA  0.245
204. CAGAACGG  0.259
205. CTACCGAC  0.264
206. AACGGCCT  0.272
207. ACCGGGCA  0.276
208. CCGCCGTC  0.29
209. GGACTTTA  0.317
210. GCGGCATA  0.33
211. GCCCGACA  0.334
212. CCCCGATA  0.339
213. ACGCCGCG  0.361
214. AATCGGAC  0.362
215. CCGGTGTA  0.366
216. AGTCGGTG  0.385
217. ATACCGAC  0.398
218. CGGAAATA  0.399
219. CCCCGCCA  0.406
